Experimental data: PubChem BioAssay AID686979 (National Center for Advancing Translational Sciences (NCATS), 2013)
Screen size: about 420,000 compounds; about 50,000 (12%) were called active. The shares of active, inactive and inconclusive entries below differ from those in the screen. The call rests on the fitted dose curve; in most records, active means well fitted inhibition curve with a large enough effect; inconclusive means small, poorly fitted or top-dose-only effect; inactive means flat fitted curve, though single readings scatter. Potencies of inconclusive entries are left out as doubtful fits.

Test: qHTS for Inhibitors of human tyrosyl-DNA phosphodiesterase 1 (TDP1): qHTS in cells in presence of CPT; further: nearly all actives have a fitted effect of over 55% in size
Conditions: chicken DT40 Tdp1-/-;hTDP1 cells + 20 nM CPT, ATP luminescence, 48 h; activity change, negative = growth inhibition: at 46.2 µM (top of the series) unless noted
Outline: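 Chicken DT40 Tdp1-/- cells stably complemented with human TDP1 were seeded at 400 cells/well in medium containing 20 nM camptothecin, exposed to pin-transferred compounds, and grown at 37 °C for at least 48 hr. Viability was read as ATP luminescence.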
On the % scale 0 is the no-effect control and ±100 the full control effect; potency means the concentration at half of the fitted maximal effect; tags describe the fitted curve by direction and shape.

Structure (SMILES) | Potency | activity change, negative = growth inhibition
CN1Cc2sc(N)c(C#N)c2CC1(C)C | inconclusive [inhibitor, single point] | 
Cc1ccc(NC(=O)c2sc3nc(CCl)[nH]c(=O)c3c2C)c(C)c1 | active: 14.6 µM | 
CC(C)c1ccc(CNc2nc(-c3ccco3)nn2S(=O)(=O)c2ccccc2)cc1 | active: 23.1 µM | 
CN1C(=O)NC(c2ccccc2)(C(F)(F)F)S/C1=C(/C#N)c1nnc(N2CCOCC2)n1-c1ccccc1 (configuration not stated) |  | inactive: -2.24%
Cc1ccccc1OCC(=O)Nc1sc2c(c1C#N)CCC2 | inconclusive [inhibitor, single point] | 
CCOc1ccccc1CNC(=O)c1nn(C)c2c1CS(=O)(=O)c1ccccc1-2 | active: 18.4 µM | 
Cc1cc(N2CCN(c3ccc(F)cc3)CC2)n2ncnc2n1 | inconclusive [inhibitor, single point] | 
Cc1cc2c(cc1NC(=O)c1ccc(C(C)(C)C)cc1)n(C)c(=O)c(=O)n2C | active: 23.1 µM | 
CCOc1ccc(C2/C(=C(/O)c3ccc4c(c3)CC(C)O4)C(=O)C(=O)N2CCCn2ccnc2)cc1 (configuration not stated) |  | inactive: -13.3%
CC(C)c1ccc(NC(=O)c2cc(S(=O)(=O)N3CCCC3)c[nH]2)cc1 | inconclusive [inhibitor, single point] | 
CCCS(=O)(=O)NCCc1cc2ccc(C)cc2[nH]c1=O |  | inactive: 6.41%
CN1Cc2c(C(=O)OC(C)(C)C)ncn2-c2ccsc2C1=O |  | inactive: 0.214%
Nc1c(C(=O)N2CCOCC2)sc2nc3c(cc12)CCC3 |  | inactive: -5.08%
CCOc1cccc(-c2nnc3sc(C4CCCCC4)nn23)c1 | inconclusive [inhibitor, single point] | 
Cc1ccc(C2(c3noc(CN(C)Cc4cnn(C)c4)n3)CCCC2)cc1 | active: 20.6 µM | 
Cc1cc(C)cc(OCC(=O)Nc2ccccc2C(=O)NCc2ccco2)c1 | inconclusive [inhibitor, single point] | 
C#Cc1ccc([C@@H]2C=C(C(=O)N3CCN(Cc4ccc5c(c4)OCO5)CC3)O[C@H](OCCCCO)C2)cc1 | inconclusive [inhibitor, single point] | 
COc1ccc(CN(CCC(c2ccc(F)cc2)C2CCOC(C)(C)C2)C(=O)c2ccco2)cc1 (configuration not stated) | active: 20.6 µM | 
CCOC(=O)c1sc(Nc2nc3c(OC)cccc3s2)cc1C | inconclusive [inhibitor, single point] | 
COc1ccc(NC(=O)c2sc3nc[nH]c(=O)c3c2C)cc1 | inconclusive [inhibitor, single point] | 
Cc1ccc(Cn2c(CCNc3nc(-c4ccc(C)cc4)cs3)nc3cc(C(=O)NCCCO)ccc32)cc1 | active: 20.6 µM | 
COC(=O)c1cc(S(=O)(=O)N2CCN(c3ccc(C)cc3C)CC2)cn1C | inconclusive [inhibitor, single point] | 
CCC(NC(=O)c1cncc(Br)c1)c1ccccc1 (configuration not stated) |  | inactive: -6.44%
COc1ccc(-c2cc(C(F)(F)F)nc(S(=O)(=O)CCC(=O)N3CCOCC3)n2)cc1 | active: 6.51 µM | 

Structure (SMILES) | Potency | activity change, negative = growth inhibition
Cc1cc(N2CCN(C(=O)c3ccco3)CC2)n2ncc(-c3ccccc3)c2n1 | active: 23.1 µM | 
CC(C)c1ccc(NC(=O)C(c2ccc3c(c2)OCO3)N2CCC3(CC2)OCCO3)cc1 (configuration not stated) | inconclusive [inhibitor, single point] | 
COc1ccc(S(=O)(=O)NNC(=O)C2Cc3c(ccc4ccccc34)O2)cc1 (configuration not stated) | active: 16.4 µM | 
O=C(CCNS(=O)(=O)c1ccccc1F)NC1CCCCCC1 |  | inactive: -4.23%
Cc1nc(C(=O)NCC(=O)c2ccccc2)c(C(F)(F)F)o1 |  | inactive: -10.3%
O=C1NC[C@H](Cc2ccccc2)N(C[C@@H]2CCCN2C[C@H](Cc2ccc(O)cc2)N2C[C@H](Cc3ccccc3)N(CC3CCCCCC3)C(=O)C2=O)C1=O | inconclusive [inhibitor, single point] | 
Cc1[nH]c(C)c(S(=O)(=O)N2CCCCC2)c1C(=O)N1CCCC1 |  | inactive: -7.95%
Cc1ccccc1-c1nc(CS(=O)CC(=O)NCCc2ccc(Cl)cc2)c(C)o1 (configuration not stated) | active: 16.4 µM | 
CC(C)Oc1ccc(CNC(=O)C2COc3ccccc3C2)cc1 (configuration not stated) |  | inactive: -27.7%
CCOC(=O)c1cnc2c(-c3ccc(Cl)cc3)c(C)nn2c1N |  | inactive: -22.5%
COc1ccc(CC(=O)OCC(=O)N(CC(C)C)c2c(N)n(Cc3ccccc3)c(=O)[nH]c2=O)cc1 |  | inactive: -27.5%
CCCC(=O)N1CCC1(C)C(=O)Nc1ccc(C)c(C)c1 (configuration not stated) | inconclusive [inhibitor, single point] | 
CCOC(=O)C1(Cc2ccccc2C(F)(F)F)CCN(Cc2ccon2)CC1 |  | inconclusive: -35.3% [inhibitor]
O=C(NCc1ccccc1)C(c1cc2ccccc2o1)n1c(=O)c(-c2ccco2)nc2ccccc21 (configuration not stated) | inconclusive [inhibitor, single point] | 
COC(=O)c1ccccc1NC(=O)Nc1cccc(OCc2cc(=O)n3cccc(C)c3n2)c1 |  | inactive: -20.5%
COc1cc(CO)cc(Br)c1OCc1cccnc1 |  | inactive: -0.731%
O=C(CN(Cc1ccccc1)C(=O)c1ccc2c(c1)OCCO2)NCc1ccc2c(c1)OCO2 | inconclusive [inhibitor, single point] | 
Cc1ccc(-c2nc(Nc3ccccc3)n[nH]2)cc1 | inconclusive [inhibitor, single point] | 
Cc1cc(C(=O)COc2ccccc2[N+](=O)[O-])c(C)n1C1CC1 | active: 23.1 µM | 
COC(=O)c1nn(-c2ccccc2)c(Sc2ccc(Cl)cc2)c1/C=N/O |  | inactive: -10.6%
CCOc1ccc(C2c3c(oc4ccc(C)cc4c3=O)C(=O)N2c2nc(C)c(C)s2)cc1OC (configuration not stated) | inconclusive [inhibitor, full curve] | 
O=C1CN(C(=O)C2CCCCC2)C(c2ccccc2)c2cc(F)ccc2N1 (configuration not stated) | inconclusive [inhibitor, single point] | 
COc1cc(O)c(C(CCN2CCCC(C)C2)c2cc(OC)c(OC)c(OC)c2)c(OC)c1 (configuration not stated) | inconclusive [inhibitor, partial curve] | 
